From PubChem BioAssay AID686979 (National Center for Advancing Translational Sciences (NCATS), 2013)
Out of some 420,000 compounds screened, about 50,000 (12%) were called active. Not shown: some 26% with an inconclusive outcome. Calls follow the shape of the dose curve; as a rule, active = well fitted inhibition curve with a large enough effect; inconclusive = small, poorly fitted or top-dose-only effect; inactive = flat fitted curve, though single readings scatter. The entries are a selection whose mix differs from that of the whole data set. Some structures have more than one record in an assay (separate samples or runs), and their calls can disagree.

Assay: qHTS for Inhibitors of human tyrosyl-DNA phosphodiesterase 1 (TDP1): qHTS in cells in presence of CPT; also: nearly all actives have a fitted effect of over 55% in size
Details: chicken DT40 Tdp1-/-;hTDP1 cells + 20 nM CPT, ATP luminescence, 48 h; series mostly up to 46.2 µM; activity change, negative = growth inhibition: at the top concentration
How it was run: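 Cell growth measured by CellTiter-Glo luminescence after a minimum 48 h, 37 C compound exposure with 20 nM CPT in Tdp1-knockout DT40 cells stably expressing hTDP1, seeded 400/well; qHTS titration format.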
% is scaled to controls: 0 for no effect and ±100 for the full control effect; potency is read from the fitted curve at half-maximal effect.

Compound | activity change, negative = growth inhibition | Potency
COc1ccc(N(CCC#N)C(=O)/C(C#N)=C\c2cccs2)cc1 | inactive: -12.3% | –
O=c1cc(-c2ccccc2)[nH]n2cnnc12 | inactive: 35.8% | –
COCc1cc(=O)[nH]c(N2CCN(c3ccccc3OC)CC2)n1 | inactive: 52.7% | –
COc1ccc(N2C(=O)C(Cc3ccccc3)NC2=S)cc1 (stereo not given) | inactive: 31.4% | –
C[C@H]1NC(=O)[C@]2(C)[C@@H](c3ccccc3)[C@H]3COc4ccccc4[C@@H]3N2C1=O | inactive: -0.0375% | –
COc1cc(OC)cc(-c2cc3ccc(OC)cc3cn2)c1 | – | active: 16.4 µM
C[C@H]1CN([C@@H](C)CO)C(=O)CCCn2cc(nn2)CO[C@@H]1CN(C)S(=O)(=O)c1ccc2ccccc2c1 | inactive: -22.9% | –
Cn1c(CN2CCCCC2)nc2cc(NC(=O)c3ccc(Cl)cc3)ccc21 | inactive: -28.6% | –
O=C(Nc1cccc(Cl)c1)/C(=C\c1cccnc1)NC(=O)c1ccco1 | inactive: 36.7% | –
Cc1noc(C)c1NC(=O)N(C)C[C@H]1Oc2ccc(NC(=O)NC(C)C)cc2C(=O)N([C@H](C)CO)C[C@H]1C | inactive: 25.9% | –
Cc1ccc(C)c(-n2c(-c3cccnc3)n[nH]c2=S)c1 | inactive: 31.6% | –
C[C@@H]1CN([C@H](C)CO)C(=O)CCCn2nncc2CO[C@H]1CN(C)Cc1cccc(C(F)(F)F)c1 | – | active: 20.6 µM
COc1ccc([C@@H]2CNC(=O)C2)cc1OC1CCCC1 | – | inactive
O=C(O)c1cn(C2CC2)c2cc(N3CCN(S(=O)(=O)c4ccc5c(c4)OCCO5)CC3)c(F)cc2c1=O | – | active: 14.6 µM
Cc1cc(OC(=O)c2c(C)cc(O)cc2O)cc(O)c1C(=O)O | – | inactive
CCOC(=O)CSc1nc2cccnc2n1C | inactive: 32.2% | –
CC1(C)C2CC[C@@]1(C)C(=O)C2 | inactive: 0.488% | –
CCCCN(CC)CCNC(=O)c1cc2c(=O)[nH]c3ccccc3c2n1C | inactive: -4.95% | –
COc1cc(C(=O)NCC(c2cccnc2)N2CCN(c3ccc(F)cc3)CC2)cc(OC)c1OC (stereo not given) | inactive: -25.6% | –
Cc1nc(NCc2ccco2)c2c(C)c(C)sc2n1 | – | active: 2.06 µM
